“And” between values parts separate entries of the source, which are not always exact repeats. Identical values can stand only once. About 6,500 (4.3%) of roughly 150,000 compounds were called active. Inconclusive results, whose numbers are uncertain, are shown with a selection of clear calls. Calls follow the shape of the dose curve; as a rule, active = well fitted inhibition curve with a large enough effect (not every such curve was filed as active); inconclusive = small, poorly fitted or top-dose-only effect, or another doubt; inactive = no such curve, though single readings can be large or run the other way. Potencies beside an inconclusive call are fits to weak or partial responses and may not hold up.
target: 15-hydroxyprostaglandin dehydrogenase [NAD(+)] (Homo sapiens) (UniProt P15428); test: qHTS Assay for Inhibitors of HPGD (15-Hydroxyprostaglandin Dehydrogenase); conditions: purified HPGD, NADH fluorescence kinetic, PGE2 substrate; activity change, negative = inhibition: active compounds read low
Method in brief: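 NADH formation kinetics: reaction with 30 uM PGE2 and 1 mM NAD+ (final), 20 nM enzyme, Tris-HCl pH 8 with Tween 20, after 15 min compound preincubation at room temperature. Fluorescence change, last versus first of five reads.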
% is scaled to controls: 0 for no effect and ±100 for the full control effect; potency is read from the fitted curve at half-maximal effect; tags tell the direction and shape of the fitted curve.

Sequence of UniProt P15428 (P15428 whole entry, looked up): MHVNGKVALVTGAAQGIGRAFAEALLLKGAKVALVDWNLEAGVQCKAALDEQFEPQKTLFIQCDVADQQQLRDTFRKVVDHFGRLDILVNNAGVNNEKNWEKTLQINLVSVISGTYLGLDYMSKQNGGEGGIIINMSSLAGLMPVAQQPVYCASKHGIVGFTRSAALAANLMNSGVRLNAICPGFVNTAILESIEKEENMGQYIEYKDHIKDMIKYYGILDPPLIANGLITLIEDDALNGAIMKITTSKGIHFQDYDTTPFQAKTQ

Activity change, negative = inhibition, inactive:
CN(Cc1ccccc1)S(=O)(=O)c1ccc(NC(=S)NC(=O)C(C)(C)C)cc1 -15.2%, COc1ccc(C(=O)N2CCC3(CCN(Cc4ccccc4)CC3)CC2)cc1 -2.82%, Cc1c(C(=O)NCCSCc2ccco2)cccc1[N+](=O)[O-] -19.8%, COCCNC(=O)/C(C#N)=C/c1c(N2CC(C)OC(C)C2)nc2ccccn2c1=O (stereo unspecified) -28.5%, CCOc1cc(S(=O)(=O)n2c(C)nc3ccccc32)ccc1F -12.6%, NC1(C(=O)O)CC(C(=O)O)C1 (stereo unspecified) -10.7% and -1.54%

Potency, inconclusive:
CN(C)S(=O)(=O)c1cccc(NC(=O)c2cc(-c3cccs3)nn2-c2ccccc2)c1 39.8 µM [inhibitor, single point], O=C(CNC(=O)C1CCCCC1)OCc1cc(=O)oc2ccc3ccccc3c12 25.1 µM [inhibitor, partial curve], COc1ccc2occ(C(=O)c3cccs3)c2c1 25.1 µM [inhibitor, partial curve, poor fit], Cc1nc(-c2coc3c(CN(C)C)c(O)ccc3c2=O)cs1 25.1 µM [inhibitor, partial curve], COC(=O)c1nc(N)sc1-c1ccccc1 17.8 µM [inhibitor, partial curve], O=C(Nc1ccc(-c2cn3ccccc3n2)cc1)c1ccc(Cl)cc1 28.2 µM [inhibitor, partial curve], c1ccc(-c2cc(N3CCCCC3)nc(-c3ccccc3)n2)cc1 28.2 µM [inhibitor, single point], Nc1nc(-c2ccccc2)nc2sc3c(c12)CCCC3 22.4 µM [inhibitor, partial curve], O=C(OCn1ncc(Br)c(Br)c1=O)c1ccccc1Cl 10 µM [inhibitor, partial curve], O=C(NCCC1=CCCCC1)c1ccc2c(=O)n3c(nc2c1)CCCCC3 28.2 µM [inhibitor, single point]

Potency, active:
Cc1ccccc1CSc1nc2c(c(=O)[nH]1)CCCC2 3.98 µM, CC(C)c1ccc(C(=O)NCCCN(C)C)cc1 14.1 µM, CC1(C)Cc2c(c(-c3ccco3)[nH]c(=O)c2C#N)CS1 14.1 µM, CCCCC(=O)Nc1ccc2c(c1)nc1n2CCSC1 31.6 µM, COc1ccc(C2C(=O)c3ccccc3C2=Nc2ccc(Br)cc2)cc1 (stereo unspecified) 7.08 µM

— PubChem BioAssay AID894 (National Center for Advancing Translational Sciences (NCATS), 2007)
